The test system of this assay is L1210 leukemia ip in BDF1 mice, survival T/C. Description: NCI In Vivo Anticancer Drug Screen. Data for tumor model L1210 Leukemia (intraperitoneal) in B6D2F1 (BDF1) mice. To be noted: endpoint: mean survival time, higher = longer survival.

T/C data for two molecules are collected here from PubChem BioAssay AID248 (DTP/NCI, 2004).

Toxic doses and inconclusive results are not listed. For part of its entries the source gives two or more results. This list holds those alone. There may be further records. The values listed for one entry differ for a reason that is not stated; dose, time, organism, isomer or construct need not be as stated for each record.

Consider `Cc1c(O)ccc(=O)n1O`, for which the T/C (dose: 96.0 mg/kg/injection, schedule: Q01DX009 (ip), vehicle: Klucel (hydroxypropylcellulose) (HPC)) was 117 % of control and 156 % of control.

With `O=P(N1CCOCC1)(N1CC1)N1CC1`, the T/C (dose: 35.0 mg/kg/injection, schedule: Q01DX001 (ip), vehicle: saline) is 119 % of control and 162 % of control.
